Laboratory results as given in the supplement of paper PMC8728848.
Some of the results follow.

What was measured:
Assay in all cases: glycan array binding signal (z-score within array); higher = stronger binding
Conditions in all cases: glycan notation: IUPAC condensed, linker removed
[1] = target: Fuc(a1-2)Gal
Procedure, shortened: (§1)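 Glycan array binding is given as a within-array Z-score, which can be read as non-binding when negative. The arrays, 3228 of them, came from the Consortium for Functional Glycomics database and were retained only where the protein sequence was available. Z-scores were averaged across arrays of the same protein sequence at different concentrations or buffers and across linkers.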

[2] = target: Fuc(a1-2)Gal(b1-3)GalNAc
Procedure, shortened: as §1

[3] = target: Fuc(a1-2)Gal(b1-3)GalNAc(a1-3)[Fuc(a1-2)]Gal(b1-4)Glc
Procedure, shortened: as §1

[4] = target: Fuc(a1-2)Gal(b1-3)GalNAc(a1-3)[Fuc(a1-2)]Gal(b1-4)GlcNAc
Procedure, shortened: as §1

[5] = target: Fuc(a1-2)Gal(b1-3)GalNAc(b1-3)Gal
Procedure, shortened: as §1

[6] = target: Fuc(a1-2)Gal(b1-3)GalNAc(b1-3)Gal(a1-4)Gal(b1-4)Glc
Procedure, shortened: as §1

[7] = target: Fuc(a1-2)Gal(b1-3)GalNAc(b1-4)[Neu5Ac(a2-3)]Gal(b1-4)Glc
Procedure, shortened: as §1

[8] = target: Fuc(a1-2)Gal(b1-3)GlcNAc
Procedure, shortened: as §1

[9] = target: Fuc(a1-2)Gal(b1-3)GlcNAc(b1-2)Man(a1-3)[Fuc(a1-2)Gal(b1-3)GlcNAc(b1-2)Man(a1-6)]Man(b1-4)GlcNAc(b1-4)GlcNAc
Procedure, shortened: as §1

[10] = target: Fuc(a1-2)Gal(b1-3)GlcNAc(b1-2)Man(a1-3)[Fuc(a1-2)Gal(b1-3)GlcNAc(b1-2)Man(a1-6)]Man(b1-4)GlcNAc(b1-4)[Fuc(a1-6)]GlcNAc
Procedure, shortened: as §1

[11] = target: Fuc(a1-2)Gal(b1-3)GlcNAc(b1-3)Gal(b1-4)Glc
Procedure, shortened: as §1

[12] = target: Fuc(a1-2)Gal(b1-3)GlcNAc(b1-3)GalNAc
Procedure, shortened: as §1

[13] = target: Fuc(a1-2)Gal(b1-3)GlcNAc(b1-3)[Fuc(a1-2)Gal(b1-3)GlcNAc(b1-6)]GalNAc
Procedure, shortened: as §1

[14] = target: Fuc(a1-2)Gal(b1-3)GlcNAc(b1-3)[Gal(b1-4)GlcNAc(b1-6)]Gal(b1-4)Glc
Procedure, shortened: as §1

[15] = target: Fuc(a1-2)Gal(b1-3)GlcNAc(b1-3)[Neu5Ac(a2-6)Gal(b1-4)GlcNAc(b1-6)]Gal(b1-4)Glc
Procedure, shortened: as §1

[16] = target: Fuc(a1-2)Gal(b1-3)GlcNAc6S
Procedure, shortened: as §1

[17] = target: Fuc(a1-2)Gal(b1-3)[Fuc(a1-4)]GlcNAc
Procedure, shortened: as §1

[18] = target: Fuc(a1-2)Gal(b1-3)[Fuc(a1-4)]GlcNAc(b1-2)Man(a1-3)[Fuc(a1-2)Gal(b1-3)[Fuc(a1-4)]GlcNAc(b1-2)Man(a1-3)]Man(b1-4)GlcNAc(b1-4)GlcNAc
Procedure, shortened: as §1

[19] = target: Fuc(a1-2)Gal(b1-3)[Fuc(a1-4)]GlcNAc(b1-2)Man(a1-3)[Fuc(a1-2)Gal(b1-3)[Fuc(a1-4)]GlcNAc(b1-2)Man(a1-6)]Man(b1-4)GlcNAc(b1-4)[Fuc(a1-6)]GlcNAc(b1-4)[Fuc(a1-6)]GlcNAc
Procedure, shortened: as §1

[20] = target: Fuc(a1-2)Gal(b1-3)[Fuc(a1-4)]GlcNAc(b1-3)[Fuc(a1-3)[Gal(b1-4)]GlcNAc(b1-6)]Gal(b1-4)Glc
Procedure, shortened: as §1

[21] = target: Fuc(a1-2)Gal(b1-3)[Fuc(a1-4)]GlcNAc(b1-3)[Gal(b1-4)GlcNAc(b1-6)]Gal(b1-4)Glc
Procedure, shortened: as §1

[22] = target: Fuc(a1-2)Gal(b1-4)Glc
Procedure, shortened: as §1

[23] = target: Fuc(a1-2)Gal(b1-4)Glc6S
Procedure, shortened: as §1

[24] = target: Fuc(a1-2)Gal(b1-4)GlcNAc
Procedure, shortened: as §1

[25] = target: Fuc(a1-2)Gal(b1-4)GlcNAc(b1-2)Man
Procedure, shortened: as §1

[26] = target: Fuc(a1-2)Gal(b1-4)GlcNAc(b1-2)Man(a1-3)[Fuc(a1-2)Gal(b1-4)GlcNAc(b1-2)Man(a1-6)]Man(b1-4)GlcNAc(b1-4)GlcNAc
Procedure, shortened: as §1

[27] = target: Fuc(a1-2)Gal(b1-4)GlcNAc(b1-2)Man(a1-3)[Fuc(a1-2)Gal(b1-4)GlcNAc(b1-2)Man(a1-6)]Man(b1-4)GlcNAc(b1-4)[Fuc(a1-6)]GlcNAc
Procedure, shortened: as §1

[28] = target: Fuc(a1-2)Gal(b1-4)GlcNAc(b1-2)[Fuc(a1-2)Gal(b1-4)GlcNAc(b1-4)]Man(a1-3)[Fuc(a1-2)Gal(b1-4)GlcNAc(b1-2)Man(a1-6)]Man(b1-4)GlcNAc(b1-4)GlcNAc
Procedure, shortened: as §1

[29] = target: Fuc(a1-2)Gal(b1-4)GlcNAc(b1-3)Gal(b1-4)GlcNAc
Procedure, shortened: as §1

[30] = target: Fuc(a1-2)Gal(b1-4)GlcNAc(b1-3)Gal(b1-4)GlcNAc(b1-2)Man(a1-3)[Fuc(a1-2)Gal(b1-4)GlcNAc(b1-3)Gal(b1-4)GlcNAc(b1-2)Man(a1-6)]Man(b1-4)GlcNAc(b1-4)GlcNAc
Procedure, shortened: as §1

[31] = target: Fuc(a1-2)Gal(b1-4)GlcNAc(b1-3)Gal(b1-4)GlcNAc(b1-3)Gal(b1-4)GlcNAc
Procedure, shortened: as §1

[32] = target: Fuc(a1-2)Gal(b1-4)GlcNAc(b1-3)GalNAc
Procedure, shortened: as §1

[33] = target: Fuc(a1-2)Gal(b1-4)GlcNAc(b1-3)[Fuc(a1-2)Gal(b1-4)GlcNAc(b1-6)]GalNAc
Procedure, shortened: as §1

[34] = target: Fuc(a1-2)Gal(b1-4)GlcNAc(b1-3)[Fuc(a1-3)[Gal(b1-4)]GlcNAc(b1-6)]Gal(b1-4)Glc
Procedure, shortened: as §1

[35] = target: Fuc(a1-2)Gal(b1-4)GlcNAc(b1-6)GalNAc
Procedure, shortened: as §1

[36] = target: Fuc(a1-2)Gal(b1-4)GlcNAc6S
Procedure, shortened: as §1

[37] = target: Fuc(a1-2)Gal(b1-4)[Fuc(a1-3)]GlcNAc
Procedure, shortened: as §1

[38] = target: Fuc(a1-2)Gal(b1-4)[Fuc(a1-3)]GlcNAc(b1-2)Man(a1-3)[Fuc(a1-2)Gal(b1-4)[Fuc(a1-3)]GlcNAc(b1-2)Man(a1-6)]Man(b1-4)GlcNAc(b1-4)[Fuc(a1-6)]GlcNAc
Procedure, shortened: as §1

[39] = target: Fuc(a1-2)Gal(b1-4)[Fuc(a1-3)]GlcNAc(b1-2)[Fuc(a1-2)Gal(b1-4)[Fuc(a1-3)]GlcNAc(b1-4)]Man(a1-3)[Fuc(a1-2)Gal(b1-4)[Fuc(a1-3)]GlcNAc(b1-2)Man(a1-6)]Man(b1-4)GlcNAc(b1-4)GlcNAc
Procedure, shortened: as §1

[40] = target: Fuc(a1-2)Gal(b1-4)[Fuc(a1-3)]GlcNAc(b1-3)Gal(b1-4)[Fuc(a1-3)]GlcNAc
Procedure, shortened: as §1

[41] = target: Fuc(a1-2)Gal(b1-4)[Fuc(a1-3)]GlcNAc(b1-3)Gal(b1-4)[Fuc(a1-3)]GlcNAc(b1-3)Gal(b1-4)[Fuc(a1-3)]GlcNAc
Procedure, shortened: as §1

[42] = target: Fuc(a1-2)Gal(b1-4)[Fuc(a1-3)]GlcNAc(b1-3)GalNAc
Procedure, shortened: as §1

[43] = target: Fuc(a1-2)Gal(b1-4)[Fuc(a1-3)]GlcNAc(b1-3)[Neu5Ac(a2-6)Gal(b1-4)GlcNAc(b1-6)]Gal(b1-4)Glc
Procedure, shortened: as §1

[44] = target: Fuc(a1-2)Gal3S(b1-4)GlcNAc
Procedure, shortened: as §1

[45] = target: Fuc(a1-2)Gal6S(b1-3)GlcNAc
Procedure, shortened: as §1

B1: Epa22 (Candida glabrata) (protein)
chain: MGSSHHHHHHSSGLVPRGSHMKRALSSQNPFGYPIGCSPQSTNVIPGLTMELYSYPIVSGTPPNCYDASYVDPEYPRTGYLKRKMIGKSTGVTGSLNYKFSVEKACMVKYGNLPAGYNYNEPLTVSNFTMLLYGYFKPQTSGIHTFFVNADDLLYINFGAGNAFDCCKREDSKFKLGEYVAYDIWHVDSSKNKVSLNLEKDVYYPIRMFFNNIGKDSSLDLSFSVNGAVEHITDFSGYLYSVPDQPDACPAPIGYDTTCK
glycan array binding signal (z-score) [1]: -0.385
glycan array binding signal (z-score) [2]: -0.38
glycan array binding signal (z-score) [3]: -0.361
glycan array binding signal (z-score) [4]: -0.373
glycan array binding signal (z-score) [5]: -0.282
glycan array binding signal (z-score) [6]: -0.328
glycan array binding signal (z-score) [7]: -0.408
glycan array binding signal (z-score) [8]: -0.39
glycan array binding signal (z-score) [9]: 0.003
glycan array binding signal (z-score) [10]: -0.398
glycan array binding signal (z-score) [11]: -0.387
glycan array binding signal (z-score) [12]: -0.308
glycan array binding signal (z-score) [13]: 1.01
glycan array binding signal (z-score) [14]: -0.338
glycan array binding signal (z-score) [15]: -0.338
glycan array binding signal (z-score) [16]: -0.242
glycan array binding signal (z-score) [17]: -0.376
glycan array binding signal (z-score) [18]: -0.235
glycan array binding signal (z-score) [19]: -0.404
glycan array binding signal (z-score) [20]: -0.366
glycan array binding signal (z-score) [21]: -0.334
glycan array binding signal (z-score) [22]: -0.378
glycan array binding signal (z-score) [23]: -0.03
glycan array binding signal (z-score) [24]: -0.287
glycan array binding signal (z-score) [25]: -0.333
glycan array binding signal (z-score) [26]: -0.348
glycan array binding signal (z-score) [27]: -0.333
glycan array binding signal (z-score) [28]: -0.376
glycan array binding signal (z-score) [29]: -0.384
glycan array binding signal (z-score) [30]: -0.382
glycan array binding signal (z-score) [31]: -0.358
glycan array binding signal (z-score) [32]: -0.33
glycan array binding signal (z-score) [33]: -0.256
glycan array binding signal (z-score) [34]: -0.38
glycan array binding signal (z-score) [35]: 0.233
glycan array binding signal (z-score) [36]: 1.13
glycan array binding signal (z-score) [37]: -0.42
glycan array binding signal (z-score) [38]: -0.338
glycan array binding signal (z-score) [39]: -0.275
glycan array binding signal (z-score) [40]: -0.398
glycan array binding signal (z-score) [41]: -0.393
glycan array binding signal (z-score) [42]: -0.313
glycan array binding signal (z-score) [43]: -0.222
glycan array binding signal (z-score) [44]: 1.56
glycan array binding signal (z-score) [45]: 1.1
